Inconclusive results, whose numbers are uncertain, are shown with a selection of clear calls. Where the call is inconclusive, the potency comes from a doubtful curve fit. Activity calls are given as the source filed them. The call rests on the fitted dose curve; in most records, active means well fitted inhibition curve with a large enough effect; inconclusive means small, poorly fitted or top-dose-only effect; inactive means flat fitted curve, though single readings scatter.
What follows are molecules tested on HEK293 (assay: Cytotoxic Profiling of Annotated Libraries Using Quantitative High-Throughput Screening (AID 1296008; further: nearly all actives have a fitted effect of over 60% in size)). Conditions: Five cell lines viability, CellTiter-Glo ATP luminescence, 48-72 h; max response: active compounds read low.
Summary of the method: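 Cytotoxicity was measured as CellTiter-Glo ATP luminescence, read after 10 min at room temperature. Compound treatment of the cells lasted 48 or 72 hr at 37 degrees Celsius in a qHTS format.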
CCC1CN2CCc3cc(OC)c(OC)cc3C2CC1CC1=NCCc2cc(O)c(OC)cc21 (configuration not stated) was tested, and the Potency was inconclusive: 14.2 µM [inhibitor, single point].
For COC(=O)[C@@]12C(=O)C(C)C(=O)[C@]1(C)C(C)=C[C@H]1[C@]3(C=O)CC[C@H](OC(C)=O)C(C)(C)[C@H]3CC[C@@]12C (some centres not stated), the outcome was “inactive”.
In the case of CC(=O)OC[C@]12[C@H](OC(C)=O)C(=O)[C@@H]3[C@@H](O)[C@@]14O[C@@]3(C)COC(=O)c1cccnc1[C@@H](C)[C@H](C)C(=O)O[C@@H]([C@H](OC(C)=O)[C@@H]2OC(C)=O)[C@]4(C)O, the Potency was inconclusive: 5.44 µM [inhibitor, single point].
O=C1Nc2ccc3ncsc3c2/C1=C/c1cnc[nH]1 was tested, and the Potency was active: 5.17 µM.
C[C@H](CN1CCOCC1)C(C(=O)N1CCCC1)(c1ccccc1)c1ccccc1 was tested, and the Potency was inconclusive: 93.7 µM [inhibitor, single point].
C[C@]12CCC(=O)C=C1CC[C@@H]1[C@@H]2CC[C@@]2(C)[C@H]1CC[C@]2(C)O was tested, and the Potency was inconclusive: 26.6 µM [inhibitor, single point].
In the case of CC[C@@H]1C[C@H]2CC[C@H](O2)[C@H](C)C(=O)O[C@@H](C)C[C@@H]2CC[C@@H](O2)[C@@H](C)C(=O)O[C@H](CC)C[C@H]2CC[C@H](O2)[C@H](C)C(=O)O[C@@H](C)C[C@@H]2CC[C@@H](O2)[C@@H](C)C(=O)O1, the Potency was active: 0.0544 µM.
Cc1cc(C(=O)CN2CCCC2)c(C)n1-c1ccc(F)cc1 was tested, and the Potency was inconclusive: 16.4 µM [inhibitor, single point].
For Clc1ccc(COC(Cn2ccnc2)c2ccc(Cl)cc2Cl)cc1 (configuration not stated), the Potency was inconclusive: 37.2 µM [inhibitor, single point].
With CCCC[N+]1(C)[C@H]2CC(OC(=O)[C@H](CO)c3ccccc3)C[C@H]1[C@H]1O[C@H]12 (some centres not stated) the max response was inactive: -1.83%.
With COC1CC(=C(c2cccs2)c2cccs2)C[N+](C)(C)C1 (configuration not stated) the Potency was inconclusive: 23.7 µM [inhibitor, single point].
For O=C(N/N=C/c1ccc([N+](=O)[O-])o1)c1cc([N+](=O)[O-])cc([N+](=O)[O-])c1O, the max response was inactive: 1.49%.

From PubChem BioAssay (NCATS)
On the % scale 0 is the no-effect control and ±100 the full control effect; potency means the concentration at half of the fitted maximal effect; tags describe the fitted curve by direction and shape.
